Measured values: the supplement of paper PMC3334620
Whole data set: some 33,000 sequences, median “E-score (-0.5 to 0.5)” near -0.01, cut for the highest 2% near 0.26. Some of the results follow.

target: Ste12 (UniProt P13574); experiment: PBM E-score (8-mer binding enrichment) (E-score (-0.5 to 0.5)); higher = stronger / more preferred TF binding; most listed sequences are background and not binding sites; conditions: protein concentration: 200 nM; construct: GST-DNA-binding domain
Method in brief: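 Full-length yeast transcription factors or their DNA-binding domains, GST-tagged and expressed with PURExpress, were applied at about 100-200 nM to universal all-10-mer Agilent arrays. These arrays had been made double-stranded by primer extension on fresh or once-stripped slides. Detection used fluorescent anti-GST, normalisation used masliner, and E-scores for ungapped eight-base words pooled with reverse complements came from the Universal PBM Analysis Suite.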

Sequence	PBM E-score
CTTGCATC	-0.0646
ATGCCGCC	-0.149
CATGCAAC	0.185
AAAAGACC	0.127
CCAGCGAC	-0.0616
CTAATAAC	0.0434
AGTATAGG	0.0154
AATGCGTA	0.0162
GTGCGTGA	0.0413
ACTCTTTA	-0.106
CAAGGCTA	-0.114
ACATCCTA	-0.0862
CTCGCGCC	-0.0247
AGCGACTA	-0.043
TAGCACCA	-0.083
GCGAGTCA	-0.157
CGCAACTC	0.135
ACCCAGGT	-0.218
AGGTTAGG	0.115
AACAAAAA	0.332
ACGGAAAT	0.106
GAACGCAA	-0.0729
ACTGCGTC	-0.0948
ATCGTCGG	0.00187
ACTCGTTC	-0.13

Sequence	PBM E-score
CTTGCGAA	0.198
GTTCCAGA	0.113
ATTCAATC	0.126
CGTTGATA	0.206
GGGCCAAA	-0.14
CACTGTGG	-0.234
GCACATCA	-0.00042
TAGACTAA	-0.0441
AGGAGATG	-0.18
GCAGCAGC	-0.0451
ACGTACAG	-0.205
ACGACGCG	0.0557
GGTCAATA	-0.0181
ATGGTTCG	0.143
GAAGGTCC	-0.191
ACACCTGG	-0.161
CGATGGGA	0.0287
CCAGGGAA	-0.16
GTGTCACA	0.202
TGGGTTAA	-0.0775
ACGTTACC	-0.0815
CTGGATAA	0.0623
ACTTATGA	0.0883
GCTTTTTA	0.271
ACGTGAGA	-0.0631

Sequence	PBM E-score
AAAGGTCC	-0.198
ACCTTGGA	-0.197
AGAGAGTG	-0.213
GTTCGATA	0.159
TAAGTCGA	-0.142
ATCCGGGC	-0.0865
AATCCCCG	0.00156
AGGCCCCC	-0.0988
AGGACGTG	-0.141
GTTCTCGA	0.0691
AATTAATT	0.254
CTAGTGTC	-0.0674
ACCACGCA	-0.0963
CATACGCC	0.133
AGTGACTC	0.0699
AGTTCTAA	0.00942
AAACCATC	0.21
AACCGACG	0.0156
CCCCAATA	-0.0357
GAGTTGGC	0.063
CCGGAAGA	-0.00316
AGTAAGGC	-0.0367
ATGAAGTG	-0.076
GTAACCGA	0.0926
ATCAGTGC	-0.0897

Sequence	PBM E-score
CTGAGAGA	0.0435
GTAATTCA	0.0809
GCCATGAC	-0.198
AAAAGCGT	0.172
AAGCTATC	0.00456
ATGTACGA	0.078
CAGGAACG	-0.13
CGACAGGC	-0.217
ACGGGTAG	-0.147
ACCTCCAG	-0.121
AGATAACT	-0.0232
ATTTGCCA	-0.0114
CATATGCC	-0.0307
GCGGATCA	-0.0389
TCTCACCA	0.109
GGAGCACA	-0.0676
AGCGCTCC	-0.0715
ATGGTGTA	0.0284
GGTGCGTA	0.0525
AAAATTTG	0.0212
AACACGCG	-0.0168
AGCGTAAA	0.109
CAAAAATC	0.123
ATGCTAAA	-0.0542
CCACAGCA	-0.124

Sequence	PBM E-score
ACCGCAAT	0.0783
CATCTTGC	0.0597
AGAGACAC	-0.233
ACGTAAAT	-0.0316
GCGAACCC	-0.0433
AGAAAACT	0.0911
ACGGACCC	-0.206
AATGTCGT	-0.0149
GGCCGCAA	-0.00535
CGAACGTA	-0.126
CCATGTCC	-0.137
CTGGGTCC	-0.24
GCAGCACC	-0.0974
ACACTAAA	0.232
AGCGCGTC	-0.0575
ACTTCCTA	-0.00834
CGTTAGAA	0.0681
CTCTGTCC	-0.0996
CATCACGA	0.00284
ATACATTC	0.0057
CTAGGCAA	-0.0255
GACTTGCC	-0.305
AATGACAG	-0.0643
ACAAGAGA	0.0763
AATGACTC	-0.12

Sequence	PBM E-score
GTAACTAA	0.207
CGGGTGCA	0.0453
CAGTGGGC	-0.199
CAATGGCC	-0.23
GACATCAC	-0.0278
CCCCTGCA	-0.23
CGGTGCTA	-0.00742
CATCTAAC	0.0284
CAAACGCA	-0.133
CATTGGAG	-0.0248
CATATTGA	0.144
AGCCCGGA	-0.0966
ATCGCACA	0.0146
GCGCATGA	-0.0436
CATGCACA	0.0615
GGGACTTA	0.0129
CTACGAAG	-0.183
CAACCCTG	0.141
ACCTACGT	-0.0687
GGATTGTA	-0.00568
ACGGCGCC	-0.0365
CCTCTCGA	-0.0789
ATGCTCTG	-0.118
AGCATCCG	-0.0876
CAATGTTC	-0.0592

Sequence	PBM E-score
AACGTGGG	-0.0675
ACAGCGAG	-0.00798
CCACGTGA	0.0289
TGATTTAA	0.266
AAAGTCTC	-0.0993
GCAATTGC	0.0356
AACCTTAA	0.21
GGGGCTAA	-0.0575
GGGTGCTA	-0.0769
ATATAGGC	0.00416
ACCGAAAA	0.195
CAACAAGC	0.0511
AGGGATTG	-0.13
GCGCGGTA	0.118
ACACTACC	-0.182
TACCTCCA	-0.0791
AGTGCTAA	-0.141
GTCAGCCA	-0.203
ACCGATCG	-0.00536
AGTCATAT	0.211
CGACAGGA	0.0149
AAGCTTAG	0.0097
TCTGAGCA	-0.00914
ACCCTATC	-0.0474
GAGACGTA	0.107

Sequence	PBM E-score
ATTTGGAG	-0.0778
ACATTAAA	0.196
CCTGTATA	0.0858
CGTACTCC	-0.218
CCTATTTC	0.0874
GAGGCTGC	0.00926
CGAGCCCC	-0.121
GACTACCA	-0.2
CCGGGTAA	0.0682
CACTCTGA	0.0155
CAGTTCGA	-0.0542
ATTGTTGG	0.19
AGTGGGAA	0.0403
CTGTATCA	0.207
GAAGAATC	-0.206
CGGTAGCC	-0.107
CTGACTAA	-0.00263
GGGTATAA	0.0292
CGATACCA	0.0193
ACATTCTA	-0.225
AACCGTGC	-0.0463
CCAATAGA	-0.00619
AACGTGCA	-0.11
GATAGCCC	-0.21
CCGGCGTA	-0.0476

Sequence	PBM E-score
GATTTTTA	0.226
CCTTCGAG	-0.201
CATCTGGA	0.0218
AGCTGACT	-0.106
CTGTAGTA	0.186
CTGCGAAA	-0.0417
CGATCACC	0.143
ACGACTCT	-0.242
GTTCATCA	0.0345
CTGATATA	0.0238
GCAGATAC	-0.0796
AGCACTAG	-0.0945
CCCGATCG	-0.0225
ATCTGCGA	-0.0393
GACCGATA	-0.00126
ATGGAGTC	-0.0356
GAACTGCC	-0.0805
GAAGATAA	-0.0185
CAAGTCAG	-0.112
